“And” between values parts separate entries of the source, which are not always exact repeats. Equal entries are not always repeated. In all, about 420,000 compounds went through this assay and about 64,000 (15%) were called active. Inconclusive means that the source gave no clear call. Such entries were picked first, then a sample of the others. Calls follow the shape of the dose curve; as a rule, active = well fitted inhibition curve with a large enough effect; inconclusive = small, poorly fitted or top-dose-only effect; inactive = flat fitted curve, though single readings scatter. Potencies of inconclusive entries are doubtful fits and often do not repeat.
Assay: qHTS for Inhibitors of human tyrosyl-DNA phosphodiesterase 1 (TDP1): qHTS in cells in absence of CPT; also: nearly all actives have a fitted effect of over 55% in size
Conditions: DT40 Tdp1-/- hTDP1 cells, no CPT, ATP luminescence, 48 h; activity change, negative = growth inhibition: at 46.2 µM (top of the series) unless noted
In short: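 DT40 Tdp1-/-;hTDP1 cells, no CPT (DMSO vehicle only), 400 cells/well; compounds pin-transferred; ≥48 hr, 37 °C; CellTiter-Glo 30 min RT dark, luminescence read.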
% is scaled to controls: 0 for no effect and ±100 for the full control effect; potency is read from the fitted curve at half-maximal effect; tags tell the direction and shape of the fitted curve.

Which Potency does the source give for CCOc1cc(/C=N/NC(=O)Nc2ccccc2)ccc1O here?
The Potency was inconclusive: 36.6 µM [inhibitor, single point].

Which Potency does the source give for Cc1ccc(OCCCn2c(C3CC(=O)N(c4cccc(Cl)c4)C3)nc3ccccc32)c(C)c1 (stereo not given) here?
Its Potency is active: 9.2 µM.

Which Potency does the source give for CCS(=O)(=O)N1Cc2ccccc2CC1C(=O)Nc1cccc(C)c1 (stereo not given) here?
The Potency was inconclusive: 3.66 µM [inhibitor, full curve].

With NC(=O)c1ccc(C(=O)c2ccc([N+](=O)[O-])cc2)cc1 as the compound, how does the Potency read?
Its Potency is inconclusive: 23.1 µM [inhibitor, single point].

Which activity change, negative = growth inhibition does the source give for COc1ccc(-c2csc(NCc3ccco3)n2)cc1C here?
Its activity change, negative = growth inhibition is inconclusive: -34.7% [inhibitor].

Which Potency does the source give for Cc1nc(N)sc1-c1csc(Nc2ccc(Cl)cn2)n1 here?
The Potency was inconclusive: 14.6 µM [inhibitor, single point].

With COCC(=O)N/N=C\c1ccccc1OC/C=C/c1ccccc1 as the compound, how does the Potency read?
The Potency was active: 25.9 µM.

For CCCCCCCN=C(C)c1ccccc1O, which “activity change, negative = growth inhibition” value is on record?
The value was inactive: -1.56%.

For COc1ccc(-c2cnc(C)o2)cc1S(=O)(=O)Nc1ccc(C)c(F)c1, which Potency is on record?
Its Potency is active: 2.59 µM.

For CCCCOC(=O)NC1CCc2cc(OC)c(OC)c(OC)c2-c2ccc(SC)c(=O)cc21 (stereo not given), which Potency is on record?
The Potency was active: 0.0146 µM.

Which “activity change, negative = growth inhibition” value does the source give for O=C(CSc1nccn1Cc1ccc(Cl)cc1)NC1CCCC1 here?
Its value is inactive: -1.94%.

Which Potency does the source give for Cc1ccc(CN2CCSc3ccc(C(=O)N4CCN(c5cccc(C)c5C)CC4)cc32)cc1 here?
The Potency was active: 5.17 µM.

For O=C(O)/C=C1\NC(=O)c2ccccc21, which “activity change, negative = growth inhibition” value is on record?
Its value is inactive: -2.4%.

For CCOC(=O)c1c(CC(C)C)csc1NC(=O)COC(=O)C1=NNC(=O)CC1, which “activity change, negative = growth inhibition” value is on record?
The value was inactive: -29.4%.

For FC(F)(F)c1ccccc1/C=N/Nc1ccccn1, which Potency is on record?
Its Potency is inconclusive: 29.1 µM [inhibitor, single point].

With CCCCN1C[C@H](CSC)[C@@H](CC(=O)NC)C1=O as the compound, how does the “activity change, negative = growth inhibition” value read?
The value was inactive: -7.02%.

With CN1/C(=C\C=C2/C(=O)Oc3ccccc3C2=O)C(C)(C)c2ccccc21 as the compound, how does the Potency read?
The Potency was inconclusive: 25.9 µM [inhibitor, single point].

Which Potency does the source give for CC(=O)NC(C)Cc1cn(Cc2ccccc2)c2ccccc12 (stereo not given) here?
The Potency was inconclusive: 20.6 µM [inhibitor, single point].

Which “activity change, negative = growth inhibition” value does the source give for C=C1CCN(c2ccc(C(=O)NCc3ccccc3)cc2[N+](=O)[O-])CC1 here?
The value was inactive: -18.3%.

Which “activity change, negative = growth inhibition” value does the source give for CCOCCc1nn2c(=O)cc(COC(=O)c3ccc(NC(=O)c4ccc(F)cc4)cc3)nc2s1 here?
The value was inactive: -11.3%.

For S=C1NCN(Cc2ccco2)CN1c1cccc2ccccc12, which “activity change, negative = growth inhibition” value is on record?
Its value is inactive: -19.5%.

For Cc1cccc(C)c1OC(=O)CCN1C(=O)C2C3C=CC(C4CC34)C2C1=O (stereo not given), which activity change, negative = growth inhibition is on record?
The activity change, negative = growth inhibition was inconclusive: -36.3% [inhibitor].

Which Potency does the source give for CCN(C(=O)c1ccc(NC(=O)Cc2ccccc2)cc1)c1ccccc1 here?
The Potency was inconclusive: 20.6 µM [inhibitor, single point].

For COc1cccc(/C=C/C(=O)OCC(=O)NCCC2=CCCCC2)c1, which Potency is on record?
The Potency was active: 23.1 µM.

Which “activity change, negative = growth inhibition” value does the source give for CCc1ccc(C2CC(=O)N(c3cccc(C(F)(F)F)c3)C3=C2C(=O)OC3)cc1 (stereo not given) here?
The value was inactive: -5.91%.

For COCc1cc(C)nc(SCC(=O)Nc2cc(C(F)(F)F)ccc2N2CCOCC2)c1C#N, which Potency is on record?
The Potency was inconclusive: 25.9 µM [inhibitor, single point].

For O=c1c2ccccc2nc2n1CCCCC2, which “activity change, negative = growth inhibition” value is on record?
Its value is inactive: -13.2%.

With CC(=O)NC(Nc1nc2c(s1)CCCC2)(C(F)(F)F)C(F)(F)F as the compound, how does the “activity change, negative = growth inhibition” value read?
The value was inactive: 1.88%.

With COc1ccccc1C(=O)NCCc1csc(-c2ccc(C(F)(F)F)cc2)n1 as the compound, how does the Potency read?
Its Potency is inconclusive: 29.1 µM [inhibitor, single point].

With COc1ccc(C(=O)NCC(=O)N/N=C/c2cn[nH]c2-c2ccccc2)cc1 as the compound, how does the “activity change, negative = growth inhibition” value read?
The value was inactive: -7.79%.

For c1ccc(Cc2cc(-c3ccccc3)on2)cc1, which “activity change, negative = growth inhibition” value is on record?
The value was inactive: -9.04%.

With CCNC(=S)Nc1cc(C)ccn1 as the compound, how does the “activity change, negative = growth inhibition” value read?
The value was inactive: 8.28%.

For CCCCNc1ccc(/C=C2\C=Cc3ccccc32)cc1, which Potency is on record?
Its Potency is inconclusive: 22.4 µM [inhibitor, single point].

With CCOc1ccccc1N1CCN(C(=O)NCc2ccc(C)cc2)CC1 as the compound, how does the Potency read?
The Potency was inconclusive: 29.1 µM [inhibitor, single point].

Which Potency does the source give for Cc1nn(Cc2c(F)c(F)c(F)c(F)c2F)c(C)c1NC(=O)c1ccc(COc2cc(Cl)ccc2Cl)cc1 here?
The Potency was inconclusive: 8.2 µM [inhibitor, partial curve].

Which “activity change, negative = growth inhibition” value does the source give for COc1ccc(C(=O)c2c(C)oc3ccc(O)cc23)cc1 here?
The value was inactive: 0.756%.

With Cc1ccc(Cn2c(CN(C)Cc3ccccc3)nc3c2c(=O)n(C)c(=O)n3C)cc1 as the compound, how does the Potency read?
The Potency was inconclusive: 29.1 µM [inhibitor, single point].

With O=C(NCCS(=O)(=O)N1CCC2(CC1)OCCO2)c1ccc(F)cc1 as the compound, how does the “activity change, negative = growth inhibition” value read?
The value was inactive: -12.1%.

Which Potency does the source give for O=C(CN1CCCCC1)NCC1(c2ccccc2)CCCC1 here?
The Potency was inconclusive: 29.1 µM [inhibitor, single point].

With Cc1c(C(=O)NCc2ccc3c(c2)OCCO3)sc(=O)n1Cc1ccccc1C(F)(F)F as the compound, how does the Potency read?
The Potency was inconclusive: 18.4 µM [inhibitor, single point].

For S=c1[nH]nc(-c2ccccc2)n1/N=C/c1cccc(Cl)c1, which Potency is on record?
The Potency was inconclusive: 32.6 µM [inhibitor, single point].

For CCc1nnc(NC(=O)c2ccc(Cl)nc2)s1, which “activity change, negative = growth inhibition” value is on record?
The value was inactive: 4.25%.

With CC(C)c1nc2cc(C(=O)N3CCNC(=O)C3c3cccc(F)c3)ccc2o1 (stereo not given) as the compound, how does the “activity change, negative = growth inhibition” value read?
Its value is inactive: -25%.

With Cc1ccccc1-n1nnnc1SCC(=O)c1c(N)n(C2CC2)c(=O)[nH]c1=O as the compound, how does the Potency read?
Its Potency is inconclusive: 29.1 µM [inhibitor, single point].

With COc1cccc(Cn2c(=O)c(C)nc3cnc(Oc4ccccc4)nc32)c1 as the compound, how does the Potency read?
Its Potency is inconclusive: 14.6 µM [inhibitor, single point].

With CN(Cc1ccccc1)C(=O)c1[nH]cnc1C(=O)N[C@@H](Cc1ccccc1)C(=O)OCc1ccccc1 as the compound, how does the Potency read?
The Potency was inconclusive: 29.1 µM [inhibitor, single point].

For C/C(CC(=O)Nc1ccc(OCc2ccccc2)cc1)=N\NC(=O)C(=O)Nc1cccc(C)c1, which Potency is on record?
Its Potency is active: 9.2 µM.

For Cc1ccc2nc(CSc3nnc(Nc4ccccc4F)s3)cc(=O)n2c1, which Potency is on record?
Its Potency is active: 16.4 µM.

For Cc1nnc(SCC(=O)Nc2cc(C(F)(F)F)ccc2N2CCOCC2)o1, which “activity change, negative = growth inhibition” value is on record?
The value was inactive: -7.56%.

For CC(C)[C@@H]1C(=O)N(S(C)(=O)=O)[C@H]2CCN(C(=O)/C=C\CN3CCCCC3)[C@@H]12, which Potency is on record?
The Potency was inconclusive: 29.9 µM [inhibitor, partial curve, poor fit].

Which Potency does the source give for CCCCNC(=O)C[C@@H]1C[C@@]2(C(=O)OCC)CCCC=C2N(Cc2ccccc2)C1=O here?
The Potency was inconclusive: 18.4 µM [inhibitor, single point].

For CC(=O)O[C@H]1C2OC(=O)C(C)=C2[C@@H]2OC(=O)[C@]3(CCC4OC41C)OC23 (stereo not given in full), which Potency is on record?
The Potency was inconclusive: 29.1 µM [inhibitor, single point].

For COc1ccccc1CNC(=O)COC(=O)c1ccc(-n2cnnn2)cc1, which “activity change, negative = growth inhibition” value is on record?
The value was inactive: -17%.

For O=C(Nc1cc([N+](=O)[O-])ccc1O)c1ccc2c(c1)C(=O)N(Cc1ccco1)C2=O, which “activity change, negative = growth inhibition” value is on record?
Its value is inactive: 4.57%.

Which “activity change, negative = growth inhibition” value does the source give for COc1ccc(-c2cc(C(=O)N3CCCCCC3)no2)cc1 here?
The value was inactive: -2.13%.

Which Potency does the source give for O=C(CC1(O)C(=O)N(CCc2ccccc2)c2ccccc21)c1ccccn1 (stereo not given) here?
The Potency was active: 5.17 µM.

For COCC1CCN(C(=O)c2ccc3oc(Cc4ccc(Cl)cc4)nc3c2)C1 (stereo not given), which Potency is on record?
The Potency was inconclusive: 29.1 µM [inhibitor, single point].

With O=C(C(=O)N1CCCc2ccccc21)c1c[nH]c2ccccc12 as the compound, how does the “activity change, negative = growth inhibition” value read?
The value was inactive: -11.2%.

Which Potency does the source give for Cc1cccc(Cn2nnc3c2C(=O)c2ccccc2C3=O)c1 here?
Its Potency is active: 4.61 µM.

Which Potency does the source give for CC(=O)c1cc2c(=O)c3cc(C)ccc3oc2nc1C here?
Its Potency is inconclusive: 20.6 µM [inhibitor, partial curve].

For N#Cc1c(NC(=O)c2ccccc2)sc2c1CCC2, which Potency is on record?
The Potency was active: 16.4 µM.

With Cc1[nH]c2ccccc2c1/C=N/NC(=O)CCC(=O)NCc1ccccc1 as the compound, how does the Potency read?
The Potency was inconclusive: 29.1 µM [inhibitor, single point].

Which Potency does the source give for Clc1ccc(OCCn2c(-c3ccco3)nc3ccccc32)cc1 here?
Its Potency is inconclusive: 29.1 µM [inhibitor, single point].

Which Potency does the source give for Cc1c(C(=O)NC2CCCc3ccccc32)oc2ccc(S(=O)(=O)N3CCCC3)cc12 (stereo not given) here?
Its Potency is inconclusive: 2.06 µM [inhibitor, full curve].

For COC(=O)c1c(NC(=O)CN2C(=O)NC3(CCC(C(C)(C)C)CC3)C2=O)sc2c1CCCCC2 (stereo not given), which Potency is on record?
The Potency was inconclusive: 29.1 µM [inhibitor, single point].

Which Potency does the source give for CC(C)C(=O)NC(=S)N1CCc2ccccc21 here?
Its Potency is inconclusive: 18.4 µM [inhibitor, partial curve].

With COc1ccc2c(CNC3CCC(C)CC3)c(C(=O)O)n(Cc3ccccc3)c2c1 (stereo not given) as the compound, how does the Potency read?
Its Potency is inconclusive: 23.1 µM [inhibitor, single point].

For CCCN1CCCc2cc(CN(CCCN3CCOCC3)C(=O)Nc3ccc(OCC)cc3)ccc21, which Potency is on record?
Its Potency is inconclusive: 29.1 µM [inhibitor, single point] and inconclusive: 16.4 µM [inhibitor, single point].

With CCN(Cc1nc2ccccc2c(=O)[nH]1)Cc1nc2cc(OC)c(OC)cc2c(=O)[nH]1 as the compound, how does the Potency read?
The Potency was inconclusive: 9.2 µM [inhibitor, partial curve, poor fit].

With Cc1cccc(NC(=S)NC23CN4CN(CN(C4)C2)C3)c1C as the compound, how does the “activity change, negative = growth inhibition” value read?
Its value is inactive: -22%.

For Cn1c(=O)c2[nH]c(-c3ccccc3)c(O)c2n(C)c1=O, which Potency is on record?
The Potency was inconclusive: 20.6 µM [inhibitor, single point].

With CC(=O)Nc1ccc(NC2CCCCC2NS(=O)(=O)c2ccccc2)cc1 (stereo not given) as the compound, how does the “activity change, negative = growth inhibition” value read?
Its value is inactive: 14.8%.

For CCc1nc2ccc(C(=O)Nc3cccc(OCC(=O)N(C)C)c3)cn2c1N(CCC(C)C)CCN(C)C, which “activity change, negative = growth inhibition” value is on record?
The value was inactive: -14.3%.

With CN1CCN(C(=O)c2ccc(-c3ccc(Br)cc3)o2)CC1 as the compound, how does the “activity change, negative = growth inhibition” value read?
Its value is inactive: -18.3%.

Which activity change, negative = growth inhibition does the source give for Cc1ccc2c(CN3CCN(S(=O)(=O)/C=C/c4ccccc4)CC3)cc(=O)oc2c1 here?
The activity change, negative = growth inhibition was inconclusive: -31.2% [inhibitor].

— PubChem BioAssay AID686978 (National Center for Advancing Translational Sciences (NCATS), 2013)
